Laboratory results reported in PubChem BioAssay AID624417 (National Center for Advancing Translational Sciences (NCATS), 2012).
Values joined by “and” are separate entries in the source; they are usually repeats but may differ in a detail not shown here. Identical values can stand only once. Hit rate of the full screen: of about 410,000 compounds, about 6,400 (1.6%) were called active. Inconclusive results, whose numbers are uncertain, are shown with a selection of clear calls. The call rests on the fitted dose curve; in most records, active means well fitted inhibition curve with a large enough effect; inconclusive means small, poorly fitted or top-dose-only effect; inactive means no such curve, though single readings can be large or run the other way. A potency beside an inconclusive call is a rough fit, not a confirmed value.

biological target: Glucagon-like peptide 1 receptor (Homo sapiens) (UniProt P43220); assay: qHTS of GLP-1 Receptor Inverse Agonists (Inhibition Mode); settings: HEK293 GLP-1R CRE-luciferase, luminescence, 24 h, GLP-1R form is constitutively active; activity change, negative = inhibition: at 38.3 µM (top of the series) unless noted; further: nearly all actives have a fitted effect of over 55% in size
Sequence of UniProt P43220 (P43220 whole entry, looked up): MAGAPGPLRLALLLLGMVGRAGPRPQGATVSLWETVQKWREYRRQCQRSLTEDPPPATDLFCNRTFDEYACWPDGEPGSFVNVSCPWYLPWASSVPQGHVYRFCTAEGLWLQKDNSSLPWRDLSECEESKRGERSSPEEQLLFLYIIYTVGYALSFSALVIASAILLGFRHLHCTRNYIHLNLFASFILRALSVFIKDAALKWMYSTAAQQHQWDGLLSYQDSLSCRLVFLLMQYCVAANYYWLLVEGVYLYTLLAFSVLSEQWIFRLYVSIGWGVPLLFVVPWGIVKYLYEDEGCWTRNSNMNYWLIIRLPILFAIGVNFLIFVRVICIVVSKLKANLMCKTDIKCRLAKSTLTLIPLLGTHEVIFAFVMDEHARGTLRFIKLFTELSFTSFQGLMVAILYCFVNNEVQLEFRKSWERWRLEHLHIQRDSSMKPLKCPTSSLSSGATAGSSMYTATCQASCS
Procedure, shortened: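 Seeding at 200 cells/uL, 12 h culture, 24 hr compound treatment, then luciferase reagent and a luminescence read; cells are HEK293 stably expressing a constitutively active GLP-1R plus cAMP-responsive luciferase.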
On the % scale 0 is the no-effect control and ±100 the full control effect; potency means the concentration at half of the fitted maximal effect; tags describe the fitted curve by direction and shape.

Activity change, negative = inhibition, inactive:
CCn1c(=O)c2sccc2n2c(CCC(=O)NCc3ccc(Cl)cc3)nnc12 11.4%
C[N+](C)(C)CCN1CCc2ccccc21 11.1%
CC(C(=O)Nc1ccc(C#N)cc1)N(C)CC(=O)Nc1cccc(F)c1 (stereo not given) 4.82%
CCOc1ccccc1CNC(=O)CCCN1C(=O)c2cccnc2Oc2ccc(Cl)cc21 -7.43%
COc1ccc(N2CCN(C(=O)c3sc4nc5n(c(=O)c4c3C)CCC5)CC2)cc1 12.4%
CCOc1cc(C(=O)NC)cc(Br)c1OC 11%
COc1ccccc1-c1oc2ccccc2c1C#CCO -6.17%
Cc1ccc(S(=O)(=O)N2CCN(C(=O)c3cc4c(s3)CCCC4)CC2)c(C)c1 -13.7%
CN(CCCCCCCCC(=O)/C=N/O)Cc1ccccc1 13.5%

Potency, inconclusive:
CCCOc1ccc(C2C(C(=O)c3ccc(C)o3)=C(O)C(=O)N2Cc2ccco2)cc1OCC (stereo not given) 20 µM [inhibitor, partial curve, poor fit]
Cc1cccc([C@@H]2[C@@H]3C(=O)N(Cc4ccccc4)C(=O)[C@@H]3[C@]3(C)C(=O)N(c4cccc(F)c4)C(=O)N23)c1 7.94 µM [inhibitor, partial curve, poor fit]
CC(C)(C)OC(=O)[C@H](Cc1ccccc1)NC(=O)c1nc[nH]c1C(=O)NCc1ccccc1 28.2 µM [inhibitor, single point]
Cc1nn(-c2ccccc2)c2nc(N)c(C#N)c(-c3ccc(F)cc3)c12 28.2 µM [inhibitor, single point]
C=CC[n+]1c(C)csc1Nc1ccc(C)cc1 28.2 µM [inhibitor, single point]
OCCC1CN(Cc2cccn2-c2cccnc2)CCN1Cc1ccc(F)cc1 (stereo not given) 25.1 µM [inhibitor, single point]
Clc1cccc(CSc2ccc(-c3cccs3)nn2)c1 10 µM [inhibitor, single point]
COC(=O)CN1C(C(=O)c2ccccc2)=C(OC(=O)c2ccc(C)cc2)c2ccccc2S1(=O)=O 12.6 µM [inhibitor, single point]
Cc1ccc(S(=O)(=O)N(C)C)cc1NC(=O)COc1ccccc1C(=O)Nc1ccccc1 28.2 µM [inhibitor, single point]
CC(C)(C)c1ccc(SCCc2ccccn2)cc1 28.2 µM [inhibitor, single point]
C[C@H](NC(=O)Cc1cccc2ccccc12)C(=O)N1CCOCC1 14.1 µM [inhibitor, single point]
O=C(c1ccc2c(=O)n3c(nc2c1)CCCCC3)N1CCc2ccccc21 12.6 µM [inhibitor, partial curve, poor fit]
Cc1cc(C(=O)CN2C(=O)C(=O)N(C3CCCC3)C2=O)c(C)n1CCc1ccc(F)cc1 11.2 µM [inhibitor, single point]
Cc1ccc(-c2nc(CS(=O)CC(=O)NC3CCCCC3)c(C)o2)cc1 (stereo not given) 28.2 µM [inhibitor, single point]
C=CCNC(=S)N(Cc1ccccc1)Cc1ccc(F)cc1 11.2 µM [inhibitor, partial curve, poor fit]
COc1ccccc1Cc1nc2ccccc2n1S(=O)(=O)c1ccc(Cl)cc1 3.55 µM [inhibitor, partial curve, poor fit]
COc1ccc(NC(=O)NC23CC4(C)CC(C)(CC(C)(C4)C2)C3)cc1OC 7.94 µM [inhibitor, partial curve, poor fit]
N#Cc1cccc(NCC(=O)Nc2cccc(S(=O)(=O)N3CCCCC3)c2)c1 28.2 µM [inhibitor, single point]
CCCCCCCCn1cnc2c(N)c(C)c(C)cc21 7.94 µM [inhibitor, partial curve, poor fit]
OC[C@@H]1CCCN1Cc1cn(-c2ccccc2)nc1-c1ccc2c(c1)OCO2 31.6 µM [inhibitor, single point]
O=C(C[n+]1cc2ccccc2c2ccccc21)c1ccccc1 11.2 µM [inhibitor, partial curve, poor fit]
N#Cc1nccnc1S(=O)(=O)c1cccs1 31.6 µM [inhibitor, single point]
Clc1cccc(OCCN2CCNCC2)c1 6.31 µM [inhibitor, partial curve, poor fit]
O=C(OCC(=O)N1CCN(C(=O)c2ccco2)CC1)c1cc(-c2ccc(F)cc2)nc2ccccc12 28.2 µM [inhibitor, single point]
COc1ccc(N(CC(=O)Nc2cc(Cl)ccc2C)S(=O)(=O)c2c(C)noc2C)cc1 3.55 µM [inhibitor, full curve] and 2.51 µM [inhibitor, full curve]
CCOC(=O)c1ccc(N2C(=O)Cc3cc(OCC)c(OCC)cc3C2c2ccccc2)cc1 (stereo not given) 28.2 µM [inhibitor, single point]
COc1cccc(CNS(=O)(=O)c2ccc(-c3cc(C(F)(F)F)on3)s2)c1 8.91 µM [inhibitor, partial curve, poor fit]
CCCCCCSc1cc(-c2nc3cc(C)ccn3c2NCCCC)ccc1OC 28.2 µM [inhibitor, single point] and 25.1 µM [inhibitor, single point]
O=C(C=Cc1ccccn1)c1ccccc1 28.2 µM [inhibitor, single point]

Potency, active:
CCOC(=O)C1(CCOc2ccccc2)CCN(Cc2ccc(OCC)c(CO)c2)CC1 11.2 µM
Cc1ccc([C@@H]2CC=C(C(=O)O)[C@H](c3ccc(Br)cc3)N2S(=O)(=O)c2ccccc2C)cc1 11.2 µM
